# Molecular target: ectodomain of BACE (aa 1-454) fused to a myc-his tag (Homo sapiens (Human), UniProt P56817)
# Format: biochemical
# Conditions: not given
row,SMILES,IC50 [nM]
1,COC1CCC2(CC1)Cc1ccc(C#CC3CC3)cc1C21N=C(N)N(Cc2ncco2)C1=O (stereo not shown) [Compound 300],14.8

# Same assay, conditions: footnote b: determined according to protocols described in Example 435; read-out: IC50
row,IC50 [nM],SMILES
1,1170,N#Cc1cccc(-c2ccc3c(c2)C2(CCSC(N)=N2)C2(CCc4ccccc4CC2)C3)c1 (stereo not shown) [Compound 442]
2,4,CCCSc1ccc2c(c1)C1(N=C(N)N(C)C1=O)C1(CCC(OC)CC1)C2 (stereo not shown) [Compound 541]
3,3160,COC1CCC2(CC1)C(C)(C)c1ccc(-c3cccc(C#N)c3)cc1C21N=C(N)N(C)C1=O (stereo not shown) [Compound 295]
4,3110,CO[C@H]1CC[C@]2(CC1)Cc1ccc(OCC3CC3)cc1[C@@]21N=C(N)N(CC(F)(F)F)C1=O [Compound 560]
5,13500,CO[C@H]1CC[C@]2(CC1)Cc1c(F)ccc(-c3cccc(C#N)c3)c1C21N=C(N)N(C)C1=O (stereo partly shown) [Compound 251]
6,9,COC1CCC2(CC1)Cc1ccc(OCC3CC3)cc1C21N=C(N)N(CC(F)F)C1=O (stereo not shown) [Compound 526]
7,23,CO[C@H]1CC[C@]2(CC1)Cc1ccc(-c3cnc(C)nc3)cc1C21N=C(N)N(C(C)C)C1=O (stereo partly shown) [Compound 548]
8,5.3,COC1CCC2(CC1)Cc1ccc(C#CC3CC3)cc1C21N=C(N)N(CCF)C1=O (stereo not shown) [Compound 307]
9,16,COC1CCC2(CC1)Cc1ccc(CCC(F)(F)F)cc1C21N=C(N)N(CCF)C1=O (stereo not shown) [Compound 527]
10,77,COCCOc1ccc2c(c1)C1(N=C(N)N(CC(F)(F)F)C1=O)[C@]1(CC[C@H](OC)CC1)C2 (stereo partly shown) [Compound 550]
11,730,COC1CCC2(CC1)Oc1ccc(-c3cccc(C#N)c3)cc1C21CCSC(N)=N1 (stereo not shown) [Compound 440]
12,6.8,COC1CCC2(CC1)Cc1ccc(OCC3CC3)cc1C21N=C(N)N(CCF)C1=O (stereo not shown) [Compound 525]
13,139,COCC(C)N1C(=O)C2(N=C1N)c1cc(Br)ccc1CC21CCC(OC)CC1 (stereo not shown) [Compound 301]
14,10,COC1CCC2(CC1)Cc1ccc(OCC3CC3)cc1C21N=C(N)N(CCC(F)(F)F)C1=O (stereo not shown) [Compound 528]
15,20,CN1C(=O)C2(N=C1N)c1cc(Cl)ccc1C[C@]21CC[C@@H](OC(F)F)CC1 (stereo partly shown) [Compound 275]
16,36.1,CC(C)N1C(=O)C2(N=C1N)c1cc(-c3cccnc3F)ccc1CC21CCC(OC(F)F)CC1 (stereo not shown) [Compound 289]

row,SMILES,IC50 [nM]
1,CO[C@H]1CC[C@]2(CC1)Cc1ccc(CCC(C)C)cc1C21N=C(N)N(C)O1 (stereo partly shown) [Compound 501],15.8
2,COC1CCC2(CC1)Cc1ccc(C#CC3CC3)cc1C21N=C(N)N(CCC(N)=O)C1=O (stereo not shown) [Compound 304],4.7
3,COC1CCC2(CC1)Cc1ccc(CCC3CC3)cc1C21N=C(N)N(Cc2cccc(N(C)C)c2)C1=O (stereo not shown) [Compound 368],24.8
4,COC1CCC2(CC1)Cc1ccc(C#CC3CC3)cc1C21N=C(N)N(CCN(C)S(C)(=O)=O)C1=O (stereo not shown) [Compound 308],9.3
5,CC(C)N1C(=O)C2(N=C1N)c1cc(C#N)ccc1C[C@]21CC[C@@H](OC(F)F)CC1 (stereo partly shown) [Compound 283],265
6,COC1CCC2(CC1)Cc1ccc(C#CC3CC3)cc1C21N=C(N)N(Cc2cnc3ccccc3n2)C1=O (stereo not shown) [Compound 327],5.4
7,COC1CCC2(CC1)Cc1ccc(CCC3CC3)cc1C21N=C(N)N(CCc2nccs2)C1=O (stereo not shown) [Compound 378],19.6
8,COC1CCC2(CC1)Cc1ccc(CCC3CC3)cc1C21N=C(N)N(Cc2ncco2)C1=O (stereo not shown) [Compound 314],11.2
9,COC1CCC2(CC1)Cc1ccc(CCC3CC3)cc1C21N=C(N)N(CCN(C)C)C1=O (stereo not shown) [Compound 313],12.3
10,COC1CCC2(CC1)Cc1ccc(CCC3CC3)cc1C21N=C(N)N(Cc2ccc(C(F)(F)F)cn2)C1=O (stereo not shown) [Compound 365],24.3
11,COC1CCC2(CC1)Cc1ccc(C#CC3CC3)cc1C21N=C(N)N(CCC(=O)O)C1=O (stereo not shown) [Compound 316],15.6

# Same assay, conditions: read-out: IC50
row,SMILES,IC50 [nM]
1,COC1CCC2(CC1)Cc1ccc(CCC3CC3)cc1C21N=C(N)N(Cc2cscn2)C1=O (stereo not shown) [Compound 375],8.8
2,CCCCCc1ccc2c(c1)C1(N=C(N)N(C)O1)[C@]1(CC[C@H](OC)CC1)C2 (stereo partly shown) [Compound 493],29.8
3,COc1ccc(COc2ccc3c(c2)C2(N=C(N)N(C)O2)[C@]2(CC[C@H](OC)CC2)C3)cc1 (stereo partly shown) [Compound 504],807

# From US9212153B2, “Inhibitors of beta-secretase” (Vitae Pharmaceuticals, Inc., priority 2009, dated 2015)
